Assay results from the antibiotic and cytotoxicity screens of Wong et al. (2023).
The list shows a part of the results.

system: S. aureus RN4220; assay: growth inhibition call (relative growth <= 0.2); details: 50 µM

Growth inhibition call, inactive:
C[C@H]1CN([C@@H](C)CO)S(=O)(=O)c2ccc(C#CCN(C)C)cc2O[C@@H]1CN(C)S(=O)(=O)c1cccc(F)c1
C[C@@H]1CN([C@H](C)CO)C(=O)c2cccc(NC(=O)Nc3ccc(C(F)(F)F)cc3)c2O[C@H]1CN(C)C(=O)Nc1ccc2c(c1)OCO2
O=C(NO)c1cccc(C(=O)N/N=C/[C@H](O)[C@@H](O)[C@@H](O)[C@H](O)CO)c1
C[C@@H]1CN([C@H](C)CO)S(=O)(=O)c2ccc(C#CCN(C)C)cc2O[C@H]1CN(C)Cc1ccc(F)cc1
COc1ccc(-c2cc(=O)c3c(OC)c(OC)c(OC)c(OC)c3o2)cc1OC
Cn1c(Nc2ccc(C(F)(F)F)cc2)nc2cc(Oc3ccnc(-c4ncc(C(F)(F)F)[nH]4)c3)ccc21
C[C@H](CO)N1C[C@H](C)[C@H](CN(C)Cc2ccc(Cl)c(Cl)c2)OCCCC[C@H](C)Oc2ccc(NC(=O)Nc3ccc(F)cc3)cc2C1=O
FC(F)(F)COCC(F)(F)F
C[C@@H]1CCCCO[C@@H](CN(C)C)[C@H](C)CN([C@H](C)CO)C(=O)c2cc(NC(=O)CCCCCC(=O)Nc3ccccc3N)ccc2O1
C[C@@H]1CN([C@H](C)CO)C(=O)c2cc(NS(=O)(=O)c3ccc(F)cc3)ccc2O[C@@H](C)CCCCO[C@@H]1CN(C)C(=O)c1ccccc1
